Reference: publication PMC4336329 (PLoS ONE, 2015)
The campaign covered roughly 310,000 compounds. About 14,000 (4.5%) showed an effect of 50% or more. Effects have a minus sign here. The list shows a part of the results.

biological target: human ether-à-go-go-related gene (hERG) potassium channel (human, UniProt Q12809); experiment: primary screen, population patch clamp on CHO cells stably expressing hERG
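Also: peak tail current of the secondary pulse compared with the same well before compound.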

human ether-à-go-go-related gene (hERG) potassium channel, sequence (Q12809 whole entry, looked up): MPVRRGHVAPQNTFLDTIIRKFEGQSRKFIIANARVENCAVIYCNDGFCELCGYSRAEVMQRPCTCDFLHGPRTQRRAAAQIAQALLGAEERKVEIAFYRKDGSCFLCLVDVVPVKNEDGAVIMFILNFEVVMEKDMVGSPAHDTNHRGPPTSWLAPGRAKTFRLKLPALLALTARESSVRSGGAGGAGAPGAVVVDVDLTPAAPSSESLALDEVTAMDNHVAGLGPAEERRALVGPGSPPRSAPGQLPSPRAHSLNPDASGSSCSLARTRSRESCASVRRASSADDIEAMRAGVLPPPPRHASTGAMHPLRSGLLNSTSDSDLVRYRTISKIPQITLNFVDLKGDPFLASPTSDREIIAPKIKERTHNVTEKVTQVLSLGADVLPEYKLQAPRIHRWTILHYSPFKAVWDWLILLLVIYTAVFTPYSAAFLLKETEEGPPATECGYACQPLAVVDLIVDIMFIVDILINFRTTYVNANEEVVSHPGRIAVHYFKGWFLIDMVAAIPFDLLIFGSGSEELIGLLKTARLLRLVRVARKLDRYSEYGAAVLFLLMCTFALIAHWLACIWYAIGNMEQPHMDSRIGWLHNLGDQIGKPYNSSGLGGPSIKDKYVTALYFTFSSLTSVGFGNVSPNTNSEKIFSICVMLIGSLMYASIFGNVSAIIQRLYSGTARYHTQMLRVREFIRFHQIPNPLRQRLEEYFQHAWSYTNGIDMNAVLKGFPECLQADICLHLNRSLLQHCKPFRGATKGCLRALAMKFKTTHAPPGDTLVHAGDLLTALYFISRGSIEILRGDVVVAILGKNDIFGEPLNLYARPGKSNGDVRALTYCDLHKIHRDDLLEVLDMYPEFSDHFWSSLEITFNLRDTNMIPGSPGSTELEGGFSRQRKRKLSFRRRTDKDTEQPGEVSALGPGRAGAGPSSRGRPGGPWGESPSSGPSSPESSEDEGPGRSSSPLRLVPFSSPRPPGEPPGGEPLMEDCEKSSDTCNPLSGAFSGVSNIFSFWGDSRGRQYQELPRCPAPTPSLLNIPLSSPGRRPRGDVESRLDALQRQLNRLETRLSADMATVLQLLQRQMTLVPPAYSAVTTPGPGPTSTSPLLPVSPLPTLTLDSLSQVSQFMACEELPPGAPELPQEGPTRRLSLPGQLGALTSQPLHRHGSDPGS

| SMILES | hERG current change (%, negative = inhibition) at 10uM [%] |
| --- | --- |
| N#Cc1c(-c2cccnc2)c2c([nH]c1=O)-c1ccccc1OC2 | -2.55 |
| COc1ccc(C(=O)COC(=O)[C@H](C)Nc2ccc(C(F)(F)F)cc2[N+](=O)[O-])c(OC)c1 | 1.12 |
| CSc1ccc(-c2nnn(Cc3ccc(C)cc3)n2)cc1 | 13.6 |
| C#CCn1c(S(=O)(=O)Cc2ccccc2Cl)nc(-c2ccccc2)c1-c1ccccc1 | -7.04 |
| CC1CCCCN1CC(O)COCc1ccc(Cl)cc1 (stereo not shown) | -21.7 |
| CCOC(=O)/C=C1\CN(Cc2ccc(OC)cc2)S(=O)(=O)c2ccccc21 | 2.96 |
| OCCC1CN(C2CCN(c3ccccc3F)CC2)CCN1Cc1ccccc1 (stereo not shown) | -61.8 |
| COc1ccc(CN(C)C(=O)c2ccccc2OCc2c(C)noc2C)c(OC)c1 | -6.51 |
| CCOC(=O)CNC(=O)c1sc(NC(=O)c2ccccc2F)nc1C | 3.36 |
| COc1ccccc1NCC(=O)N/N=C/c1cccnc1 | -12.8 |
| CNCCc1ccc(O)c(O)c1.Cl | 12.7 |
| CC(=O)c1ccc2c(c1)Nc1ccccc1S2 | 0.805 |
| O=C(Nc1ccc(N2CCOCC2)cc1)c1cc2ccccc2o1 | 4.38 |
| O=C(C1CCCN(S(=O)(=O)c2ccc(Br)s2)C1)N1CCCCCC1 (stereo not shown) | -11.8 |
| Cc1cc(C)c(NC(=O)CC(=O)c2ccccc2)c(Cl)c1 | 15.4 |
| COc1ccc(S(=O)(=O)N2CCCCC2)cc1NC(=O)C1CC1 | -9.08 |
| Cc1ccc(C)c(N(C(=O)c2csnn2)C(C(=O)NC2CCCC2)c2cccnc2)c1 (stereo not shown) | 1.16 |
| Cc1ccc(N(C(=O)c2csnn2)C(C(=O)NC2CCCCC2)c2ccco2)cc1 (stereo not shown) | -13.2 |
| Nc1cc(S(=O)(=O)Nc2ccccc2Cl)ccc1N1CCCC1 | -1.23 |
| O=C(NNC1CC(=O)N(c2ccc(Cl)cc2)C1=O)c1ccccc1Cl (stereo not shown) | 8.19 |
| O=C(Cc1cccs1)Nc1nnc(SCc2ccc(F)cc2)s1 | 11.2 |
| COc1ccc(C(C#N)=C2C=CC(=NO)C=C2)cc1 | -3.38 |
| CN(Cc1ccccc1)C(=O)c1cc2ccccc2o1 | -23 |

| SMILES | hERG current change (%, negative = inhibition) at 10uM [%] |
| --- | --- |
| Oc1ccccc1-c1n[nH]c(=S)n1Cc1ccccc1 | 28.3 |
| CCOc1ccc(/C(O)=C2/C(=O)C(=O)N(CCN(CC)CC)C2c2ccco2)cc1 (stereo not shown) | -10 |
| Cc1ccccc1Cn1cnc2c([N+](=O)[O-])c(C)c(C)cc21 | -21.4 |
| C=CCn1c(C(C)NC(=O)COC)nc2ccccc21 (stereo not shown) | 18.7 |
| COc1ccc(C(=O)N2CCC(n3nnc4cc(F)ccc43)CC2)cc1OC | -61.6 |
| O=C(NCCOc1ccccc1Cl)C(=O)Nc1ccccc1 | -0.069 |
| Cc1ccc(S(=O)(=O)N(Cc2cc3cccc(C)c3[nH]c2=O)c2ccccc2)cc1 | 9.11 |
| CC(C)C(C)NC(=O)COc1ccc(OCc2ccccc2)cc1 (stereo not shown) | 3.26 |
| O=C(CCC(=O)N1CCSc2ccccc21)NC1CCCCC1 | -2.55 |
| CCOC(=O)c1ccc(NC(=O)CSC(=S)N2CCOCC2)cc1 | 2.77 |
| CCN(C(=O)Cn1c(=O)oc2cc(S(=O)(=O)N3CCCC3)ccc21)c1ccc(OC)cc1 | -0.122 |
| CC(C)CC(=O)Nc1ccc(-c2nc3ccccc3c(=O)o2)cc1 | -10.5 |
| CC(C)(O)c1[nH]c2ccc(C(F)(F)F)cc2c1C(C)(C)O | 15.4 |
| CCOCCCNCC(=O)NC1(C)C2CCC(C2)C1(C)C.Cl (stereo not shown) | -3.22 |
| Cc1cc(=O)n2c(C(=O)Nc3ccc(C)c(C)c3)c(C(=O)Nc3ccccc3)sc2n1 | 15.8 |
| O=C(c1cc(-c2ccc(O)cc2)on1)N1CCc2ccccc2C1 | -31.3 |
| CCOc1cc(CNCCc2ccccc2F)ccc1OC.O=C(O)C(=O)O | -42.1 |
| COc1ccc(C(C)=O)cc1CSc1ncccn1 | 22.1 |
| CC(C)C(=O)NN(C(=O)C(C)C)c1nc2ccccc2s1 | 17.4 |
| CCOC(=O)c1cc2c(ccn2C)n1Cc1ccccc1C | 11.8 |
| O=C(NCc1cccs1)c1ccccc1C(=O)NCc1cccs1 | -40.5 |
| O=S(=O)(Cc1ccccc1)c1cnc2ccccc2n1 | 5.71 |
| CN=C(NC1CCCCC1)c1ccc(Cl)cc1.Cl | -2.67 |

| SMILES | hERG current change (%, negative = inhibition) at 10uM [%] |
| --- | --- |
| COc1ccc(-n2c(Cc3ccccc3)nc3ccccc3c2=O)cc1 | -92.8 |
| COc1ccccc1NC(=O)c1c([N+](=O)[O-])cnn1C | 15 |
| O=C(NCCCO)/C(=C\c1ccco1)NC(=O)c1ccco1 | 5.17 |
| CSc1ccc(CNC(=O)Cc2ccc(NC(=O)C3=C(C)OCCS3)cc2)cc1 | 32.9 |
| CCCCN(C(=O)c1ccc2c(c1)OCCO2)c1c(N)n(CCCC)c(=O)[nH]c1=O | -6.19 |
| COc1ccc(CNC(=O)CN(C)S(=O)(=O)c2ccc3c(c2)OCCO3)cc1OC | 12.7 |
| Cc1[nH]c2ccccc2c1/C=N/NC(=O)CNC(=O)c1ccc2c(c1)OCO2 | 6.61 |
| CC(=O)Cc1nsc(NC(=O)c2ccco2)n1 | 11 |
| COc1ccc(NC(=O)COc2ccc(C(=O)NC3CCCc4ccccc43)cc2OC)cc1 (stereo not shown) | 5.51 |
| c1ccc2c(c1)CC1(CCCCC1)n1nnnc1-2 | 0.708 |
| COc1ccc([N+](=O)[O-])cc1N(CC(=O)NC1CCCC1)S(C)(=O)=O | 26.5 |
| CC(=O)N1CCN(c2ccc(NCc3ccc(C)cc3)cc2)CC1 | 4.17 |
| C=CCn1c(C#N)c(N)sc1=N | -0.787 |
| Cc1nn(C(=O)c2ccc([N+](=O)[O-])cc2)c(C)c1Br | 13.9 |
| O=C(N/N=C/c1cccc2ccccc12)c1cccc(F)c1 | 7.83 |
| Cc1ccc(C(=O)N2CC(C)OC(C)C2)c(Cl)c1 (stereo not shown) | -5.76 |
| COc1ccc2[nH]c(C(=O)O)c(CCNC(=O)/C=C/c3ccc(O)c(OC)c3)c2c1 | 19.2 |
| Cc1ccc(C)c(NC(=O)C(=O)NCCc2c[nH]c3ccccc23)c1 | 11.7 |
| Cc1noc(C)c1CS(=O)(=O)c1ccc(Br)cc1 | -0.931 |
| CCc1cc2ccc(C)cc2nc1SCC(=O)c1ccc(NC(C)=O)cc1 | -14.8 |
| Cc1occc1-c1nnc(SCC(=O)N2CCc3ccccc32)o1 | 5.69 |
| O=C(C1=C[C@H](c2ccc(C(F)(F)F)cc2)C[C@H](OCCCCO)O1)N1CCOCC1 | -23.7 |
| C=CCC(CC=C)(NC(=O)c1cccc(C)c1)c1ccccc1 | 5.36 |

| SMILES | hERG current change (%, negative = inhibition) at 10uM [%] |
| --- | --- |
| O=C(O)c1cccc(NC(=O)c2ccccc2NC(=O)c2ccco2)c1 | 10.1 |
| Cc1onc(-c2ccccc2)c1C(=O)NCc1ccccc1F | 7.62 |
| COC(C)(C)[C@H](O)COc1c2ccoc2cc2oc(=O)ccc12 | 11.2 |
| CCC(=O)Nc1nc2nc(C)cc(=O)n2[nH]1 | 6.12 |
| CN(C(=O)c1cc2sccc2n1C)C1CCCCC1 | -21.5 |
| CN(C)CCCN(C(=O)COc1ccccc1)c1nc2c(F)cccc2s1.Cl | -81.2 |
| Oc1ccc(-c2csc(Nc3ccccn3)n2)cc1O | 8.55 |
| Cc1cc(C)n(-c2ccc(C(=O)OCn3nnc4ccccc4c3=O)cc2)n1 | 9.96 |
| O=C(/C=C/Nc1ccc(Br)cc1F)c1ccccc1 | -6.1 |
| CCOC(=O)c1ccccc1NS(=O)(=O)c1ccc(OC)cc1 | -8.11 |
| O=C(NCC1CCCO1)c1cc(-c2ccccc2)nc2ccc(Br)cc12 (stereo not shown) | -2.11 |
| COc1ccc(CCNC(=O)C2CCCN(S(=O)(=O)c3cc(C)ccc3OC)C2)cc1OC (stereo not shown) | -6.32 |
| CC(=O)Nc1ccc(NC(=O)CSc2nnc(-c3ccco3)o2)cc1 | 7.81 |
| N#Cc1cc2ccc(N3CCOCC3)cc2cc1C#N | -1.41 |
| CCCCCCCCOC(=O)C(NC(=O)CCC(=O)Nc1ccc(S(N)(=O)=O)cc1)C(O)c1ccccc1 (stereo not shown) | 16.4 |
| Cc1ccccc1NC(=O)NCC1CCCO1 (stereo not shown) | 10.3 |
| N=C1C(c2nc(-c3ccc(Cl)cc3)cs2)=C(O)CN1NC(=O)c1ccc(O)cc1 | 4.02 |
| Cc1ccc(S(=O)(=O)N2CCCCC2)cc1NC(=O)c1ccc2ccccc2n1 | 9.01 |
| Cc1nc2ccc(NC(=O)Cc3cccc(F)c3)cc2s1 | 2.56 |
| CCCOc1ccc(NC(=O)C2CC(=O)N(C(C)C)C2)cc1 (stereo not shown) | 7.03 |
| CC(C)(CO)NC(=O)C(c1ccccc1)c1ccccc1 | 2.03 |
| COc1ccc(N2CCN(S(=O)(=O)CCNC(=O)COc3ccccc3)CC2)cc1 | -0.949 |
